In the supplement of paper PMC11417369:
± gives the standard deviation of the averaged measurements. This is one part of the list.

Tested on: PfAP2-I AP2 domain 3 (GST-tagged)
Test: gcPBM binding intensity (ln(normalized median fluorescence intensity)); higher = stronger DNA binding
Summary of the method: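 Alexa488 anti-GST antibody, scanned at 488 nm, detected GST-tagged P. falciparum DNA-binding domains that had been expressed in E. coli and incubated for 1 h on an Agilent 4 × 180k array. The array carried primer-extended double-stranded 36-bp intergenic genomic probes and negative controls. Binding intensity is the highest Masliner-normalised natural-log median intensity across replicate spots of either orientation of each probe.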

Sequence	gcPBM binding intensity (ln)
AAACTTGACAGACACACACACACATATATAAAAAAA [CACACA_site757]	8.01 ± 0.38
GTTATATTATTCATACGTACCTATATTTCTATTAAC [XGTACX_site3447]	8.27 ± 0.59
ATGTGTTGGGAAAAGGCATGCACTTTTTTTTTTTTT [TGCATGCA_site707]	8.49 ± 0.77
TTTTCCTTATATTATGCATGCAGGGTTTGACATTAT [TGCATGCA_site826]	8.32 ± 0.8
TGATAACCTCACAAATGTACGTACGGGGCTAGCATT [XGTACX_site4157]	8.01 ± 0.81
AAAAAAAAAAAATAGACACACATATTATATATATAT [CACACA_site1419]	9.18 ± 0.24
TATTATTCTATACATTGTACATATTTTATAGTATGT [XGTACX_site73]	7.72 ± 0.45
TTTAAAACCTTACATACACACAAATATGTAAATATA [CACACA_site6464]	7.54 ± 0.42
AAAAAAAAAAAAAAAACACACATATAGGTATAAATA [CACACA_site7528]	8.57 ± 0.46
CACGCATATATACATACATGCATATATACATCCATG [TGCATGCA_site667]	7.8 ± 0.65
TTCATATAACCTTATAGTACATAATTAAAAATATAA [XGTACX_site6328]	7.62 ± 0.28
ATTTATACATGCTAATGTACTTATTTCACCTATATC [XGTACX_site3120]	7.93 ± 0.61
TATGGTATATACAACACACACACATATGTATAAATA [CACACA_site6562]	8.02 ± 0.47
TATATATATAATATTACACACATATATTTATATTTT [CACACA_site3460]	8.49 ± 0.4
CAAGTATTAATTATGTGTACATATATATATATATAT [XGTACX_site5311]	9.36 ± 0.23
TATGTATTTATCCACTTACATTTTTACTTTTCCATT [CACACA_negctrl_site1141]	7.89 ± 0.54
ATATATAGATAATCAAGTACATAACAAGATATAAGA [XGTACX_site2186]	7.77 ± 0.68
TACTGATCTTTCTAGGTGCGCTGCTACCATTATCGT [GTGCAC_site9538]	8.88 ± 0.16
AAATGTGAAGTGAATACACACCTAATAAATATAACA [CACACA_site5727]	7.58 ± 0.59

Sequence	gcPBM binding intensity (ln)
ACATGAAATGTTTAAAGTACATATATAAATTTTTTT [XGTACX_site4519]	7.47 ± 0.43
TATATTTAATTATTATGTACTTATAATTTTTGAAAG [XGTACX_site8548]	7.64 ± 0.26
AAATATATATACACATATATATATATATATATATAT [CACACA_negctrl_site1742]	9.25 ± 0.68
CTTTCCTATTTGACACGTACGAAATTTTACATAAAA [XGTACX_site6689]	8.41 ± 0.29
AAAATAAAAAATATAACACACAATAAATATTTATAT [CACACA_site6986]	7.81 ± 0.44
TATGAAATATCGTGCACACACGAATAATATAAGAAT [CACACA_site4842]	9.85 ± 0.11
TATAGGAATATATGGTGTACCTATAAATCTGACATA [XGTACX_site8111]	7.62 ± 0.4
TTAAATAAGTAATTATGTACATATAATATTCTTTAT [XGTACX_site5280]	7.62 ± 0.36
TAGAAAATATAAAAATGTACGTAAATAAAATGTGCA [XGTACX_site3459]	8.13 ± 0.49
AAAAATAAAAATTGCACACTAAAAAATTACGCACGA [CACACA_site3418]	10.8 ± 0.37
ATTTATATATTTATACGTACTTATATATTGTTACAT [XGTACX_site6254]	8.04 ± 0.4
ATCCGAGTGTGAAATACACACATGATAATGTGAATG [CACACA_site919]	7.48 ± 0.64
AATTATATTACAAACTGTACATATATAATTTGTCCA [XGTACX_site6009]	7.54 ± 0.45
TCTTAAGGAAAAGAGTGTACAGAAATTTTTATTAAC [XGTACX_site6139]	7.92 ± 0.49
TATAATGAGGATAATAGTACATATGAATACAAAAAA [XGTACX_site3665]	8.21 ± 0.5
GCCATAAAAATATATACACACATAAAAAAAAATTAT [CACACA_site1176]	7.98 ± 0.14
TACACAAGCAGACACACACACATATAGATTTATATA [CACACA_site6715]	7.78 ± 0.22
TTAATATTGTATTTCACACATAATTTAATATACTCA [CACACA_site5678]	7.63 ± 0.67
AACCACATACCTATAACACACATATACAATATAGAT [CACACA_site7023]	8.09 ± 0.4

Sequence	gcPBM binding intensity (ln)
ACATCATAGAAAAATTGATATATATATATATATATA [CACACA_negctrl_site130]	9.27 ± 0.44
TCCACAAAGCATGTAACACACAACATATAAGACATA [CACACA_site972]	7.76 ± 0.51
TATTAAAAAGAGGTGACACACACATATAAATCTAAA [CACACA_site9243]	7.6 ± 0.65
TATATATTTTATTTATGTACGAAAATAAATTAAATT [XGTACX_site3628]	7.63 ± 0.33
TTAAAAAAATTAATATGTACATATATTTATATATAT [XGTACX_site5317]	8.13 ± 0.45
AATATTTTAATGCACACACACAAAAAAAAAAAAAAA [CACACA_site7374]	11.5 ± 0.73
AATCCTTTACGACACACACACAAAAAAAAAAAAAAA [CACACA_site6449]	8.15 ± 0.41
TGTTGGCAGGTGAATGCATGCATATAAGTCTATCTG [TGCATGCA_site781]	8.02 ± 1.1
CACCCTTTACACAAGGTGCATACTTTATTATATTTT [GTGCAC_site9778]	9.305 ± 0.049
TTTTTCTTTCTTTCTTTTTTAATATTACAAATGTAT [XGTACX_negctrl_site267]	8.06 ± 0.58
TTATTAAAACAAAATGTACACACATATAATTTAATG [CACACA_site8193]	7.83 ± 0.26
TTCAATGCATGTCCATGTACATATAAAAAAAAATAC [XGTACX_site1597]	8.29 ± 0.4
AAAGTAGAATATCCCCTACACACCCAAATAATTTAC [CACACA_site1255]	8.38 ± 0.6
TTTTTGATATTAAAGGGTACATTATTTACAAAAAAA [XGTACX_site5284]	7.68 ± 0.57
AAAACAAACATTACACGTACAAAACAAGTTATAGAC [XGTACX_site6320]	8.12 ± 0.45
ATTCTTTTATTTAGTAGTACATTTGTATTTTATTCA [XGTACX_site5790]	8.06 ± 0.45
GATCCTGGTTCTTGTGGTACTTGTTCATTTGTTATA [XGTACX_site7164]	7.77 ± 0.79
ATGCTTTTTTATAAAAGTACATAAAGTTTTTACACT [XGTACX_site7307]	7.99 ± 0.36
